# Results reported in PubChem BioAssay AID463173 (ICCB-Longwood Screening Facility, Harvard Medical School, 2010).
# Out of some 52,000 compounds screened, about 1,700 (3.3%) were called active. Cut-off read from the data, not from the text of the source: active = survival mostly below about 52% (no sharp cut-off); inactive = mostly above about 56%. Some of the results follow.
# Tested on: Wild type
# Assay: growth inhibition of S. aureus wild type versus tarO mutant, primary screen, teichoic acid synthesis inhibitors, RN4220, OD600 (AID 463173)
# Details: S. aureus RN4220 wild type/DeltatarO growth, OD600, 18 h, stronger effect = lower value, screened at 18.75 µg/mL (by protocol)
row,SMILES,survival
1,CC(C(=O)NCc1ccc(Cl)cc1)n1ccc2cc(S(=O)(=O)N3CCCC3)ccc21 (stereo not given),inactive: 53%
2,CC1=C(C(=O)Nc2ccc(C)cc2C)C(c2ccc[nH]2)n2ncnc2N1 (stereo not given),inactive: 72%
3,CSc1nnc2c(n1)OC(c1cccc(O)c1Cl)Nc1ccccc1-2 (stereo not given),inactive: 71%
4,CCOC(=O)C1CCCN(S(=O)(=O)c2ccc3c(c2)N(C)C(=O)CC(=O)N3C)C1 (stereo not given),inactive: 107%
5,COc1cc(-c2nnc(SCC(=O)Nc3cccc(C#N)c3)o2)cc(OC)c1OC,inactive: 119%
6,COCCCNC(=O)Cn1c(=O)n(-c2ccc(Cl)cc2)c(=O)c2c3c(sc21)CCCCC3,inactive: 92%
7,COc1ccc(CCNC(=O)CN2C(=O)COc3ccc(S(=O)(=O)N4CCCCCC4)cc32)cc1OC,inactive: 73%
8,O=C(Cn1ncc2c3ccccc3n(Cc3ccc(Cl)cc3)c2c1=O)NC1CCCCCC1,inactive: 90%
9,CCc1ccc(CNC(=O)c2cnc3sc(N(CC)CC)nn3c2=O)cc1,inactive: 76%
10,CCc1ccccc1NC(=O)C(=O)NCCc1sc(-c2cccc(C)c2)nc1C,inactive: 69%
11,CCOc1ccc(-n2c(=O)c3sc4ccccc4c3n(Cc3ccc(F)cc3)c2=O)cc1,inactive: 87%
12,Cc1ccc(NC(=O)c2ccc(CN3CC(=O)N4CCCCC4C3=O)cc2)cc1C (stereo not given),inactive: 73%
13,Cc1ccc(Cl)cc1N1CCN(S(=O)(=O)c2ccc3c(c2)CC(=O)N3C)CC1,inactive: 113%
14,Cc1cccc(-c2cc3nc4c(c(N5CCCC5)n3n2)CCCC4)c1,inactive: 123%
15,CC(C)c1cnc2c(c1SCC(=O)Nc1cccc([N+](=O)[O-])c1)c(=O)n(C)c(=O)n2C,inactive: 97%
16,COCCCNc1ncnc2c1nnn2C,inactive: 91%
17,CCn1c(SCC(=O)Nc2ccc(C)c(C)c2)nnc1-c1nonc1NC(C)=O,inactive: 117%
18,CCCCC(CC)Cn1c(Oc2ccccc2)nc2c1c(=O)n(C)c(=O)n2C (stereo not given),active: -2%
19,CCn1c(=S)sc2nc(C)sc21,inactive: 99%
20,Cc1ccc(N(CC(=O)Nc2ccc(OC(F)(F)F)cc2)S(=O)(=O)c2c(C)noc2C)cc1,inactive: 86%
21,Cc1[nH]c2c(C)cccc2c1CCNC(=O)c1cc2ccccc2oc1=O,inactive: 74%
22,O=c1oc2ccc3ccccc3c2cc1-c1nnc(Nc2cc(C(F)(F)F)ccc2Cl)s1,inactive: 74%
23,COCCn1c(SCC(=O)c2c[nH]c3ccccc23)nc2cc(C(=O)NCC(C)C)ccc2c1=O,inactive: 73%

row,SMILES,survival
1,COc1cccc(N2CCN(C(=O)c3nc(-c4ccc(Cl)cc4)n4c3CCCCC4)CC2)c1,inactive: 85%
2,CCOc1ccc2[nH]c(=O)c(CN(C(C)=O)C3CCCC3)cc2c1,inactive: 104%
3,Cc1ccc(O)c(NC(=O)c2nc3nc(C)cc(C(F)F)n3n2)c1,inactive: 131%
4,COC(=O)C1CCCc2c1[nH]c1ccc(Cl)cc21 (stereo not given),inactive: 142%
5,COC(=O)c1ccc(NC(=O)C2CCN(S(=O)(=O)c3ccc4c(c3)CCCN4C(C)=O)CC2)cc1,inactive: 95%
6,Cc1nc(N2CCCC2)ncc1C(=O)NCc1ccccc1Cl,inactive: 74%
7,CCc1nnc2n1N(C(C)=O)C(c1ccc(C(C)(C)C)cc1)=C(C(C)=O)S2,inactive: 70%
8,CCc1ccc(CNC(=O)c2cc3c(s2)-c2ccccc2OC3)cc1,inactive: 95%
9,COc1cc(NC(=O)CSc2nc3nc(C)c(Cc4ccccc4)c(C)n3n2)cc(OC)c1OC,inactive: 77%
10,O=S(=O)(c1cccc(Cl)c1)c1nnn2c1nc(NC1CCCC1)c1sccc12,inactive: 95%
11,Cc1cc(S(=O)(=O)NCCC2=CCCCC2)ccc1-n1cnnn1,inactive: 103%
12,Cc1[nH]c2ccccc2c1C1(O)C(=O)N(Cc2ccc(Cl)cc2)c2ccccc21 (stereo not given),inactive: 47%
13,COc1ccc(CC(=O)Nc2sc3c(c2C(=O)Nc2ccc(C)cc2)CCCCC3)cc1,inactive: 136%
14,CCc1cccc(C)c1Nc1c(-c2cccc(O)c2)nc2sccn12,inactive: 106%
15,CC1(C)CC(NC(=O)NCc2ccc3c(c2)OCO3)CC(C)(CNC(=O)NCc2ccc3c(c2)OCO3)C1 (stereo not given),inactive: 117%
16,CCOC(=O)c1cc2c(=O)n3ccccc3nc2n(CC2CCCO2)c1=NC(=O)c1cc(C)cc(C)c1 (stereo not given),inactive: 68%
17,CCOC(=O)c1cnn(-c2ccc(OC)cc2)c1C1CCN(C(=O)OC(C)(C)C)CC1,inactive: 44%
18,COC(=O)c1ccc(NC(=O)CCc2c(C)nn(-c3ccc(N4CCCC4)nn3)c2C)cc1,inactive: 73%
19,Cn1nc(C(=O)Nc2cc(F)ccc2F)c2c1-c1ccccc1SC2,inactive: 92%
20,CC1CCCCN1c1csc2ccc(F)cc2c1=O (stereo not given),inactive: 72%
21,COc1ccccc1N1CCN(C(=O)CCc2c(C)nn(-c3ccc(N4CCCC4)nn3)c2C)CC1,inactive: 60%
22,O=C(CN1CCN(Cc2ccccc2)CC1)N1CCCCCC1,inactive: 104%
23,Cc1cccc(-c2nc(SCc3ccc(Br)cc3)n3[nH]c(=O)cc3n2)c1,inactive: 83%

row,SMILES,survival
1,CCC(C)NC(=O)CSc1nc2ccc(C(C)C)cc2cc1C#N (stereo not given),inactive: 103%
2,CSc1nc2sc3c(c2c(=O)n1-c1ccc(C)c(Cl)c1)CCN(C(C)=O)C3,inactive: 76%
3,COC(=O)c1ccc(NC(=O)CSc2nc(=O)n(Cc3ccco3)c3c2CCC3)cc1,inactive: 126%
4,CCOc1ccc(CCNC(=O)c2ccc3c(c2)c(C)c(C)n3C)cc1,inactive: 73%
5,COC(=O)CSc1nc(-c2ccccc2)cc(C)c1C#N,inactive: 104%
6,COc1cc(C(=O)N(Cc2ccc(C(C)C)cc2)C2CCS(=O)(=O)C2)cc(OC)c1OC (stereo not given),inactive: 72%
7,COc1cccc(CNc2cccc3cccnc23)c1O,inactive: 108%
8,COc1cc(NC(=O)c2nnn(Cc3ccc(F)cc3)c2N)cc(OC)c1,inactive: 74%
9,COc1ccc(-c2cc(C(F)F)n3ncc(C(=O)Nc4cc(C)on4)c3n2)cc1,inactive: 108%
10,O=C(CSc1ccc(-c2ccccc2)nn1)N1CCCC1,inactive: 103%
11,Cc1ccccc1C(=O)N1CCC(c2nc3ccccc3s2)CC1,inactive: 83%
12,CC(=O)C1=C(OC(=O)C(C)C)c2ccccc2S(=O)(=O)N1Cc1ccccc1,inactive: 102%
13,O=C(NCCCc1nc2ccccc2n1Cc1ccccc1Cl)C1CCCCC1,inactive: 103%
14,CCC(=O)N1CCc2cc(Br)cc(S(=O)(=O)NCCc3ccc(OC)c(OC)c3)c21,inactive: 71%
15,CCn1c(SCc2ccccc2)nnc1-c1nonc1NC(C)=O,inactive: 106%
16,N#CCCSCc1ccc(C(=O)O)o1,inactive: 107%
17,Cc1[nH]n2c(=O)cc(-c3ccccc3Cl)nc2c1-c1ccccc1,active: -13%
18,CCOC(=O)C1CCCN(C(=O)Cn2ncc3c([nH]c4ccccc43)c2=O)C1 (stereo not given),inactive: 88%
19,COc1ccc(C(CC(=O)Nc2ccc(F)c(Cl)c2)N2Cc3ccccc3C2=O)cc1OC (stereo not given),inactive: 63%
20,COC(=O)CC(=O)CSc1nc(C)cc(C(F)(F)F)c1C#N,inactive: 97%
21,COc1cc(C(=O)N2CCCN(c3nc4cc(C)ccc4cc3C#N)CC2)cc(OC)c1OC,inactive: 102%
22,Cc1cc(NC(=O)CN2C(=O)C(C)(C)c3ccccc32)ccc1Br,inactive: 63%
23,Cc1cccc(OCC(=O)Nc2ccc(S(N)(=O)=O)cc2)c1C,inactive: 110%

row,SMILES,survival
1,CCN(C(=O)CSc1nc2ccccc2n1CC(=O)Nc1cccc(C#N)c1)c1ccccc1,inactive: 124%
2,Cc1ccc(CNC(=O)CC2Oc3ccccc3NC2=O)cc1 (stereo not given),inactive: 77%
3,O=S1(=O)N=C(N(Cc2ccco2)c2ccc(O)cc2)c2ccccc21,inactive: 122%
4,Cc1ccc(N2CC3=C(C2=O)C(c2ccc(Br)cc2)NC(=O)N3C)cc1 (stereo not given),inactive: 92%
5,CC(C)c1ccc(NS(=O)(=O)c2ccc3[nH]cc(C(=O)NC4CCCC4)c(=O)c3c2)cc1,active: 7%
6,O=C(Cn1c(=O)oc2cc(S(=O)(=O)N3CCCCCC3)ccc21)Nc1cccc(C(F)(F)F)c1,inactive: 77%
7,CCn1c(=O)cc(SCC(=O)Nc2ccc(C)c(F)c2)c2ccccc21,inactive: 74%
8,Cc1ccccc1CNC(=O)c1ccc(NC(=O)c2nsc3ccccc23)cc1,inactive: 82%
9,Cc1ccccc1Nc1sc(C(=O)c2ccc3c(c2)OCO3)c(N)c1S(=O)(=O)c1ccccc1,inactive: 68%
10,Cc1ccc(-c2nc(C(=O)NCc3ccc(Cl)cc3)c3n2CCCCC3)cc1,inactive: 70%
11,O=C1Cc2cc(S(=O)(=O)N3CCN(c4ccccc4)CC3)ccc2N1,inactive: 88%
12,Cc1cccc(NC(=O)Nc2nnc(N(C)C3CCCCC3)s2)c1C,inactive: 117%
13,CCOc1ccc(N(CC(=O)Nc2ccccc2)S(C)(=O)=O)cc1,inactive: 110%
14,CCOc1ccccc1-n1ccnc(NCc2ccc(F)cc2)c1=O,inactive: 101%
15,CCc1ccccc1N(C)C(=O)c1cn(CC(C)C)c(=O)c2cc(OC)c(OC)cc12,inactive: 98%
16,Cc1nn(CC(=O)NCc2ccco2)c(=O)c2cc3ccccc3n12,inactive: 91%
17,O=C(CCC(=O)N1Cc2ccccc2Oc2ncccc21)Nc1ccc(Cl)cc1,active: 10%
18,COc1ccc(-c2nn(CC(=O)NC3CCCC3)c3c2cnc2ccc(F)cc23)cc1,inactive: 64%
19,CC1CCN(S(=O)(=O)c2ccc3c(c2)N(CC(=O)NCc2ccccc2)C(=O)CO3)CC1,inactive: 118%
20,COc1ccc(N2CCN(C(=O)c3cc4c(-c5ccccc5F)nn(C)c4s3)CC2)cc1,inactive: 55%
21,COc1ccc(OC)c(NC2=C(c3ccccc3)C(=O)c3ccccc32)c1,inactive: 69%
